# Data reported in the supplement of paper PMC8728848.
# This is one part of the list.
# B1: PfulAvr4 (Pseudocercospora fuligena) (protein)
# chain: HHHHHHDYKDDDDKTYVQDKTPAFVCPAADIKTTKCLGPKDCLYPSPKTCNGYIQCSPADDSYLTGIIHEMPCPSGLLWNDNKKWCDWPENTTCGLVKSAGATEVDATKQGPTPGKYHG
# Tests used:
# Assay in all cases: glycan array binding signal (z-score within array); higher = stronger binding
# Details in all cases: glycan notation: IUPAC condensed, linker removed
# [1] = target: GlcNAc(b1-3)Gal(b1-4)GlcNAc(b1-3)Gal(b1-4)GlcNAc(b1-3)GalNAc
# Summary of the method: (§1)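 Arrays were curated from the Consortium for Functional Glycomics database, 3228 in total, and kept only where the protein sequence was available. Binding is expressed as a within-array Z-score. This score was averaged across arrays of the same protein sequence at different concentrations or buffers and across linkers, and negative values can be read as non-binding.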
# [2] = target: GlcNAc(b1-3)Gal(b1-4)GlcNAc(b1-3)GalNAc
# Summary of the method: as §1
# [3] = target: GlcNAc(b1-3)Gal(b1-4)GlcNAc(b1-3)[GlcNAc(b1-3)Gal(b1-4)GlcNAc(b1-3)]GalNAc
# Summary of the method: as §1
# [4] = target: GlcNAc(b1-3)Gal(b1-4)GlcNAc(b1-6)[Gal(b1-3)]GalNAc
# Summary of the method: as §1
# [5] = target: GlcNAc(b1-3)Gal(b1-4)GlcNAc(b1-6)[GlcNAc(b1-3)Gal(b1-3)]GalNAc
# Summary of the method: as §1
# [6] = target: GlcNAc(b1-3)Gal(b1-4)GlcNAc(b1-6)[GlcNAc(b1-3)]Gal(b1-4)GlcNAc
# Summary of the method: as §1
# [7] = target: GlcNAc(b1-3)GalNAc
# Summary of the method: as §1
# [8] = target: GlcNAc(b1-3)Man
# Summary of the method: as §1
# [9] = target: GlcNAc(b1-3)[GlcNAc(b1-4)][GlcNAc(b1-6)]GlcNAc
# Summary of the method: as §1
# [10] = target: GlcNAc(b1-3)[GlcNAc(b1-6)]Gal(b1-4)GlcNAc
# Summary of the method: as §1
# [11] = target: GlcNAc(b1-3)[GlcNAc(b1-6)]GalNAc
# Summary of the method: as §1
# [12] = target: GlcNAc(b1-4)Gal(b1-4)GlcNAc
# Summary of the method: as §1
# [13] = target: GlcNAc(b1-4)GlcNAc
# Summary of the method: as §1
# [14] = target: GlcNAc(b1-4)GlcNAc(b1-4)GlcNAc
# Summary of the method: as §1
# [15] = target: GlcNAc(b1-4)GlcNAc(b1-4)GlcNAc(b1-4)GlcNAc(b1-4)GlcNAc
# Summary of the method: as §1
# [16] = target: GlcNAc(b1-4)GlcNAc(b1-4)GlcNAc(b1-4)GlcNAc(b1-4)GlcNAc(b1-4)GlcNAc
# Summary of the method: as §1
# [17] = target: GlcNAc(b1-4)[GlcNAc(b1-6)]GalNAc
# Summary of the method: as §1
# [18] = target: GlcNAc(b1-6)Gal(b1-4)GlcNAc
# Summary of the method: as §1
# [19] = target: GlcNAc(b1-6)GalNAc
# Summary of the method: as §1
# [20] = target: GlcNAc6S(b1-3)Gal(b1-4)GlcNAc
# Summary of the method: as §1
# [21] = target: Kdn(a2-3)Gal(b1-3)GalNAc
# Summary of the method: as §1
# [22] = target: Kdn(a2-3)Gal(b1-3)GlcNAc
# Summary of the method: as §1
# [23] = target: Kdn(a2-3)Gal(b1-4)Glc
# Summary of the method: as §1
# [24] = target: Kdn(a2-3)Gal(b1-4)GlcNAc
# Summary of the method: as §1
# [25] = target: Kdn(a2-3)Gal(b1-4)[Fuc(a1-3)]GlcNAc
# Summary of the method: as §1
# [26] = target: Kdn(a2-6)Gal(b1-4)GlcNAc
# Summary of the method: as §1
# [27] = target: Man(a1-2)Man(a1-2)Man(a1-3)Man
# Summary of the method: as §1
# [28] = target: Man(a1-2)Man(a1-2)Man(a1-6)[Man(a1-3)]Man
# Summary of the method: as §1
# [29] = target: Man(a1-2)Man(a1-3)Man
# Summary of the method: as §1
# [30] = target: Man(a1-2)Man(a1-3)[Man(a1-2)Man(a1-6)]Man
# Summary of the method: as §1
# [31] = target: Man(a1-2)Man(a1-3)[Man(a1-2)Man(a1-6)]Man(a1-6)[Man(a1-2)Man(a1-2)Man(a1-3)]Man
# Summary of the method: as §1
# [32] = target: Man(a1-2)Man(a1-3)[Man(a1-2)Man(a1-6)]Man(a1-6)[Man(a1-2)Man(a1-2)Man(a1-3)]Man(b1-4)GlcNAc(b1-4)GlcNAc
# Summary of the method: as §1
# [33] = target: Man(a1-2)Man(a1-3)[Man(a1-6)]Man(a1-6)[Man(a1-2)Man(a1-3)]Man(b1-4)GlcNAc(b1-4)GlcNAc
# Summary of the method: as §1
# [34] = target: Man(a1-2)Man(a1-6)[Man(a1-3)]Man(a1-6)[Man(a1-2)Man(a1-2)Man(a1-3)]Man
# Summary of the method: as §1
# [35] = target: Man(a1-2)Man(a1-6)[Man(a1-3)]Man(a1-6)[Man(a1-2)Man(a1-2)Man(a1-3)]Man(b1-4)GlcNAc(b1-4)GlcNAc
# Summary of the method: as §1
# [36] = target: Man(a1-3)[Man(a1-6)]Man
# Summary of the method: as §1
# [37] = target: Man(a1-3)[Man(a1-6)]Man(a1-6)[Man(a1-2)Man(a1-3)]Man(b1-4)GlcNAc(b1-4)GlcNAc
# Summary of the method: as §1
# [38] = target: Man(a1-3)[Man(a1-6)]Man(a1-6)[Man(a1-3)]Man
# Summary of the method: as §1
# [39] = target: Man(a1-3)[Man(a1-6)]Man(a1-6)[Man(a1-3)]Man(b1-4)GlcNAc(b1-4)GlcNAc
# Summary of the method: as §1
# [40] = target: Man(a1-3)[Man(a1-6)]Man(b1-4)GlcNAc(b1-4)GlcNAc
# Summary of the method: as §1
# [41] = target: Man(a1-3)[Man(a1-6)]Man(b1-4)GlcNAc(b1-4)[Fuc(a1-6)]GlcNAc
# Summary of the method: as §1
# [42] = target: Man(a1-6)Man
# Summary of the method: as §1
# [43] = target: Man(b1-4)GlcNAc
# Summary of the method: as §1
# [44] = target: MurNAc(b1-4)GlcNAc
# Summary of the method: as §1
# [45] = target: Neu5Ac(a2-3)Gal
# Summary of the method: as §1
binder,measurement,setting,value
B1,glycan array binding signal (z-score),[1],-0.095
same,glycan array binding signal (z-score),[2],-0.115
same,glycan array binding signal (z-score),[3],-0.137
same,glycan array binding signal (z-score),[4],-0.194
same,glycan array binding signal (z-score),[5],-0.146
same,glycan array binding signal (z-score),[6],-0.212
same,glycan array binding signal (z-score),[7],-0.085
same,glycan array binding signal (z-score),[8],0.804
same,glycan array binding signal (z-score),[9],-0.124
same,glycan array binding signal (z-score),[10],0.043
same,glycan array binding signal (z-score),[11],-0.14
same,glycan array binding signal (z-score),[12],-0.021
same,glycan array binding signal (z-score),[13],0.191
same,glycan array binding signal (z-score),[14],-0.107
same,glycan array binding signal (z-score),[15],0.556
same,glycan array binding signal (z-score),[16],23.3
same,glycan array binding signal (z-score),[17],-0.224
same,glycan array binding signal (z-score),[18],-0.108
same,glycan array binding signal (z-score),[19],0.015
same,glycan array binding signal (z-score),[20],-0.066
same,glycan array binding signal (z-score),[21],-0.171
same,glycan array binding signal (z-score),[22],-0.13
same,glycan array binding signal (z-score),[23],0.189
same,glycan array binding signal (z-score),[24],-0.115
same,glycan array binding signal (z-score),[25],-0.025
same,glycan array binding signal (z-score),[26],0.004
same,glycan array binding signal (z-score),[27],-0.121
same,glycan array binding signal (z-score),[28],-0.085
same,glycan array binding signal (z-score),[29],-0.106
same,glycan array binding signal (z-score),[30],-0.132
same,glycan array binding signal (z-score),[31],-0.013
same,glycan array binding signal (z-score),[32],-0.117
same,glycan array binding signal (z-score),[33],-0.058
same,glycan array binding signal (z-score),[34],-0.063
same,glycan array binding signal (z-score),[35],-0.003
same,glycan array binding signal (z-score),[36],-0.079
same,glycan array binding signal (z-score),[37],0.011
same,glycan array binding signal (z-score),[38],-0.076
same,glycan array binding signal (z-score),[39],-0.097
same,glycan array binding signal (z-score),[40],-0.092
same,glycan array binding signal (z-score),[41],-0.095
same,glycan array binding signal (z-score),[42],-0.118
same,glycan array binding signal (z-score),[43],-0.045
same,glycan array binding signal (z-score),[44],0.035
same,glycan array binding signal (z-score),[45],-0.101
